These are literature values, as cited in paper PMC11006913.

Some targets named below: ARX T333N (Homo sapiens) (UniProt Q96QS3); ISX R83Q (Homo sapiens) (UniProt Q2M1V0); ARX P353L (Homo sapiens) (UniProt Q96QS3); ISX (Homo sapiens) (UniProt Q2M1V0).
What all share (settings): PBM; conditions not shown; double strand, one strand shown; scale: upbm affinity estimate (log intensity, higher = more binding, comparable within an allelic series)
Data set [1] addresses PITX2 L100Q (Homo sapiens) (UniProt Q99697).
Data set [2] has as its target PITX2 R108H (Homo sapiens) (UniProt Q99697).
The target of data set [3] is PITX2 R130W (Homo sapiens) (UniProt Q99697).
Data set [4] addresses PITX2 T114P (Homo sapiens) (UniProt Q99697).
The target of data set [5] is T1, HESX1 E149K (Homo sapiens) (UniProt Q9UBX0).
T1 sequence: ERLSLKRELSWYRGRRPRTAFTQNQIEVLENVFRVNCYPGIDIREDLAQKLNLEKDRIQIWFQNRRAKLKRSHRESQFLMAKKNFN

For data set [6], the target named is T2, HESX1 N125S (Homo sapiens) (UniProt Q9UBX0).
T2 sequence: T1 sequence with N31S, K55E

The target in data set [7] is T3, HESX1 R160C (Homo sapiens) (UniProt Q9UBX0).
T3 sequence: T1 sequence with K55E, R66C

For data set [8], the target named is HOXD13 I322L (Homo sapiens) (UniProt P35453).
In data set [9] the target is PROP1 R99Q (Homo sapiens) (UniProt O75360).
Data set [10] addresses PROP1 R112Q (Homo sapiens) (UniProt O75360).
The target of data set [11] is HOXD13 I297V (Homo sapiens) (UniProt P35453).
In data set [12] the target is HOXD13 N298S (Homo sapiens) (UniProt P35453).
In data set [13] the target is HOXD13 Q325R (Homo sapiens) (UniProt P35453).
The target in data set [14] is HOXD13 R306W (Homo sapiens) (UniProt P35453).
In data set [15] the target is HOXD13 S316C (Homo sapiens) (UniProt P35453).

Residue numbers refer to the chain shown, from its start. This is one part of the list.

Turning to AATTAAGG [8-mer AATTAAGG], the binding signal was 11.8 with ARX T333N (Homo sapiens); 13.5 in the data set with ISX R83Q (Homo sapiens); 9.74 in [1]; 8.81 in data set [2]; 8.64 in [3]; 8.81 in [4].
Regarding GAGCTTGC [8-mer GAGCTTGC], the results for the binding signal in data set [5], in data set [6] and in data set [7] were 9.9, 7.23 and 9.96, respectively.
As for CAGTCCCG [8-mer CAGTCCCG], the binding signal in data set [5] is 9.95; in data set [6] it was 7.86; in data set [7], 10.
Regarding ATTATGAA [8-mer ATTATGAA], the binding signal is 11 in data set [5] and 9.79 in data set [6].
As to GCCCTGGA [8-mer GCCCTGGA], the values for the binding signal in [5], in data set [6] and in [7] were 9.94, 7.69 and 10.1, respectively.
As to CCCCCCAG [8-mer CCCCCCAG], the binding signal in [5] was 9.64; in data set [6], 7.55; in data set [7] it was 9.76.
Regarding CAAAATTA [8-mer CAAAATTA], the binding signal in data set [5] was 10.6; in data set [6] it was 9.71; in data set [7] it was 10.2.
With ATTACGTG [8-mer ATTACGTG], the binding signal in data set [5] is 10.8.
As for GCTCGTTA [8-mer GCTCGTTA], the binding signal is 11.7 with ARX P353L (Homo sapiens) and 12.1 in [8].
Consider AAATTGCA [8-mer AAATTGCA], for which the binding signal is 10.7 in data set [5] and 9.23 in data set [6].
For the sequence CCGCGGAC [8-mer CCGCGGAC], the binding signal in [5] was 9.96; in data set [6] it was 7.41; in [7] it was 10.1.
Regarding AGGGTAGC [8-mer AGGGTAGC], the binding signal is 10.1 in data set [5], 7.83 in data set [6] and 10.2 in [7].
As for AATAGACT [8-mer AATAGACT], the binding signal in data set [5] was 10.7.
Regarding ATAAATTA [8-mer ATAAATTA], the binding signal with ARX T333N (Homo sapiens) was 11.8.
Regarding AATTAGGC [8-mer AATTAGGC], the binding signal was 12.3 in the data set with ARX P353L (Homo sapiens) and 12.1 in [9].
With ACTCATTA [8-mer ACTCATTA], the binding signal with ARX P353L (Homo sapiens) was 12.3; in [10], 12.3; in [9], 12.
Turning to AATTAAGA [8-mer AATTAAGA], the binding signal is 11.8 with ARX T333N (Homo sapiens); 11.2 in [5]; 11 in data set [6]; 10.2 in [7]; 14.9 with ISX (Homo sapiens); 13.7 with ISX R83Q (Homo sapiens).
For the sequence AATTATTA [8-mer AATTATTA], the binding signal with ARX T333N (Homo sapiens) is 11.8; in data set [5], 11.4; in data set [6], 11.2; in [7], 10.5; in data set [10], 12.6; in data set [9], 12.1.
On to ACAAATTA [8-mer ACAAATTA], for which the figures for the binding signal (with ARX T333N (Homo sapiens); in data set [10]; in data set [9]) were 11.8, 12.5 and 12, respectively.
Consider CTAACGAG [8-mer CTAACGAG], for which the binding signal was 11.8 in the data set with ARX P353L (Homo sapiens) and 11.6 in [8].
As to ATATTAAT [8-mer ATATTAAT], the binding signal in the data set with ARX T333N (Homo sapiens) was 11.9; in data set [11], 12.3; in [12], 12.6; in data set [13] it was 12.3; in data set [14] it was 11.8; in data set [15] it was 12.2.
For the sequence TGGTACCA [8-mer TGGTACCA], the values for the binding signal in [5], in data set [6] and in [7] were 10.2, 7.98 and 10.3, respectively.
For the sequence CCCGGGCC [8-mer CCCGGGCC], the binding signal in data set [5] is 9.73; in data set [6], 7.56; in [7], 9.84.
For the sequence CCCGGCCC [8-mer CCCGGCCC], the binding signal in data set [5] is 9.82; in data set [6] it was 7.82; in [7], 9.92.
As to ACGGGGCC [8-mer ACGGGGCC], the results for the binding signal in data set [5], in [6] and in [7] were 10, 7.8 and 10.1, respectively.
